Not every entry of the source has a single result; some have several. Only these are listed. There may be further records. The records of an entry are repeated measurements across runs, samples, wells, individuals or studies. Marks such as (2×) give the number of equal values in this list.
Test system: 439559-082-T-J2-PDC spheroids viability
Assay: Anticancer human tumor 439559-082-T-J2-PDC patient-derived colon adenocarcinoma cell line growth inhibition [GQUAD]
Conditions: stronger effect = lower value
Excerpt: DNA G-quadruplex Stabilizer Agents in Combinations in Complex Spheroids
A high-throughput screen of multi-cell type tumor spheroids was designed to identify active combinations of DNA G-quadruplex stabilizer agents and targeted small molecules. Complex spheroids include a stromal component modeled by human endothelial cells (HUVEC) and fibroblasts modeled by human mesenchymal stem cells (MSCs). The concentration ranges selected for each drug and investigational agent were based upon clinically achievable concentrations if the clinical Cmax of the agent was known.
Compounds. The drugs and investigational agents: pidnarulex (CX-5461; NSC782164), APTO-253 (NSC789042), BRACO-19 (NSC847499), peposertib (NSC802822), ceralasertib (NSC780249), elimusertib (NSC800525), camonsertib (NSC841442), AZD-1390 (NSC803789), olaparib (NSC753686), talazoparib (NSC767125), ART-558 (NSC835418), sotorasib (NSC818433), MRTX-1133 (NSC836407), SN-38 (NSC673596), topotecan (NSC609699), etoposide (NSC141540), doxorubicin (NSC123127), gemcitabine (NSC613327), 5-fluorouracil (NSC19893), paclitaxel (NSC125973), vemurafenib (NSC761431), panobinostat (NSC761190), R-306465 (JNJ-16241199; NSC773264), adavosertib (NSC754352), TP-3654 (NSC805149), carboplatin (NSC241240), KSQ-4279 (NSC840948), and staurosporine (NSC755774) were obtained from the National Cancer Institute (NCI) Developmental Therapeutics Program Chemical Repository (34). The FDA-approved anticancer drug set is available from the NCI Developmental Therapeutics Program. […] The stock solutions were prepared in dimethyl sulfoxide (DMSO, Sigma-Aldrich, St. Louis, MO, cat. D2650) at 800-fold the tested concentration and stored at -70 degrees C prior to their use. All drugs and investigational agents were tested over a range starting from a high concentration at or near the clinical Cmax and decreasing in half-log increments. If the clinical Cmax for an agent had not been determined, the highest concentration tested was 10 microM.
2.3 Cell Culture. All cells were maintained in an incubator at 37 degrees C and 5% CO2 with 95% humidity. The PDC lines were cultured according to standard operating procedures established by the NCI PDMR. All PDCs were thawed and cultured in Matrigel-coated flasks prepared with a working solution of 1X Ham's F-12 nutrient mix, without supplementation (Invitrogen, cat. 11765054), 100 U/mL penicillin-streptomycin (Invitrogen, cat. 15140122), and 2.5% Matrigel (Corning Inc., cat. 354248) for the first three passages. The 857933-349-R-J2-PDC line was cultured in 6C/Colon 1B media, which includes advanced DMEM/F-12 (Thermo Fisher Scientific, cat. 12634028), 10 mM HEPES (Thermo Fisher Scientific, cat. 15630080), 1X GlutaMAX supplement (Thermo Fisher Scientific, cat. 35050061), 0.1 mg/mL primocin (InvivoGen, cat. ant-pm-2), 10% defined fetal bovine serum, heat inactivated (HyClone Laboratories Inc., cat. SH30070.03HI), 50% L-WRN conditioned media (ATCC, cat. CRL-3276), 1.25 mM N-Acetyl-L-cysteine (Sigma-Aldrich, cat. A9165), 10 mM nicotinamide (Sigma-Aldrich, cat. N0636), 1X B-27 supplement (Thermo Fisher Scientific, cat. 17504044), 1X N-2 supplement (Thermo Fisher Scientific, cat. 17502048), 10 microM Y-27632 dihydrochloride (Tocris Bioscience, cat. 1254), and 50 ng/mL human EGF recombinant protein (Thermo Fisher Scientific, cat. PHG0311). The 485176-168-R4-J1-PDC line was cultured in Panc media, which includes all 6C/Colon 1B media components plus 100 ng/mL human FGF-10 (Thermo Fisher Scientific, cat. 100-26), 500 nM SB-431542 (Selleckchem, cat. S1067), and gastrin (Tocris, cat. 3006).
[…]
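Also: spheroids exposed to the agents for 7 days before readout; percent of luminescence signal in DMSO vehicle wells taken as 100% viability.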

Structure (SMILES)	viability, T/C (compound alone 1 µM)	viability, T/C (compound alone 3.16 µM)	viability, T/C (compound alone 10 µM)
O=C(NO)c1cnc(N2CCN(S(=O)(=O)c3ccc4ccccc4c3)CC2)nc1	12.6%, 59.9%, 1.75%	0.27%, 40.1%, 0.31%	0.28%, 31%, 0.3%
CN(C)c1ccc(Nc2c3ccc(NC(=O)CCN4CCCC4)cc3nc3cc(NC(=O)CCN4CCCC4)ccc23)cc1	91.1, 89, 117, 103 (2×), 107, 101, 100, 105, 102, 97.2, 98.1%	–	–
CC(=O)O[C@H]1C(=O)[C@@]2(C)[C@H]([C@H](OC(=O)c3ccccc3)[C@]3(O)C[C@H](OC(=O)[C@H](O)[C@@H](NC(=O)c4ccccc4)c4ccccc4)C(C)=C1C3(C)C)[C@]1(OC(C)=O)CO[C@@H]1C[C@@H]2O	74.4%, 2.22%, 59.1%	43.8%, 0.34%, 45.7%	32.7%, 0.31%, 30.6%

From PubChem BioAssay AID2060510 (Molecular Pharmacology Branch, DTP, NCI, 2025)
